# The supplement of paper PMC8285479
# Where a name gives a salt, the structure may show the parent alone. ± gives the standard deviation of the averaged measurements. Over roughly 1,900 compounds, “normalised cell viability (NPI; 0 = phenylarsine oxide control, 1 = DMSO control)” has its median near 1; the lowest 2% begin near 0.039. Some of the results follow.
# System: NCI-H1944
# Test: normalised cell viability (NPI; 0 = phenylarsine oxide control, 1 = DMSO control) (fraction of DMSO control); NCI-H1944 is a non-small cell lung cancer line; higher = more viable cells (less compound toxicity)
# Details: 6 days
# [1] = glucocorticoid arm: hydrocortisone 2.75 uM co-treatment, compound 1 µM
# [2] = glucocorticoid arm: hydrocortisone 2.75 uM co-treatment, compound 5 µM
# [3] = glucocorticoid arm: hydrocortisone 2.75 uM pre-treated 2 days and continued, compound 1 µM
# [4] = glucocorticoid arm: hydrocortisone 2.75 uM pre-treated 2 days and continued, compound 5 µM
# [5] = glucocorticoid arm: vehicle, compound 1 µM
# [6] = glucocorticoid arm: vehicle, compound 5 µM
# 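Note: CTB read-out in 384-well plates, mean of triplicate wells, normalised per plate against 1 µM phenylarsine oxide and 0.1% DMSO, compounds added 24 h after seeding.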
Structure (SMILES),normalised cell viability [1],normalised cell viability [2],normalised cell viability [3],normalised cell viability [4],normalised cell viability [5],normalised cell viability [6]
CCCC(CCC)C(=O)O [Valproic acid sodium],1.006 ± 0.0069,1.01 ± 0.03,1.007 ± 0.0058,1.05 ± 0.086,1.006 ± 0.0075,1.01 ± 0.016
COc1ccccc1CNCCCCCCNCCCCCCCCNCCCCCCNCc1ccccc1OC [Methoctramine tetrahydrochloride],1 ± 0.016,0.925 ± 0.019,1.03 ± 0.015,1.06 ± 0.061,1.001 ± 0.0081,1 ± 0.016
CCOC(=O)C1=CN(Cc2ccccc2)C=C(C(=O)OCC)C1c1ccccc1,0.995 ± 0.018,1.01 ± 0.026,1 ± 0.019,1.01 ± 0.021,0.993 ± 0.0059,1.003 ± 0.01
O=C(NC1CCNCC1)c1n[nH]cc1NC(=O)c1c(Cl)cccc1Cl,0.225 ± 0.03,0.0298 ± 0.0013,0.349 ± 0.039,0.149 ± 0.015,0.0396 ± 0.029,0.0072 ± 0.00086
C[C@H](NC(=O)/C(C#N)=C/c1ccc(O)c(O)c1)c1ccccc1 [Tyrphostin AG 835],1.006 ± 0.0069,0.975 ± 0.012,1.01 ± 0.031,1.02 ± 0.02,1.013 ± 0.0058,1.013 ± 0.0058
CC(C)(C)c1cc(/C=C(\C#N)C(N)=S)cc(C(C)(C)C)c1O [Tyrphostin AG 879],0.99933 ± 0.00058,1.03 ± 0.011,1.04 ± 0.062,1.04 ± 0.011,0.9957 ± 0.0035,0.9973 ± 0.0023
CC(C)(C)c1cc(/C=C(\C#N)C(N)=S)cc(C(C)(C)C)c1O [Tyrphostin AG 879 (AG 879)],0.998 ± 0.013,1.03 ± 0.027,1.005 ± 0.0092,1.023 ± 0.0058,0.992 ± 0.011,0.9943 ± 0.0042
CCC(=O)NCC[C@@H]1CCc2ccc3c(c21)CCO3 [Ramelteon],1 ± 0.018,1.01 ± 0.011,1.006 ± 0.0069,1.01 ± 0.019,0.9943 ± 0.009,0.9933 ± 0.0061
COc1cc(=O)n(C)c2c(OCC(O)C(C)(C)O)cccc12 (configuration not stated) [Foliosidine],1.005 ± 0.0081,0.99 ± 0.01,0.9877 ± 0.0067,0.981 ± 0.012,0.998 ± 0.011,0.9963 ± 0.0021
CN(C)CCC(c1ccc(Cl)cc1)c1ccccn1 (configuration not stated) [Chlorpheniramine Maleate],1.02 ± 0.01,0.985 ± 0.034,1.03 ± 0.015,0.991 ± 0.026,0.9897 ± 0.0023,0.9807 ± 0.0047
C[C@H](O)C(=O)C1=Nc2c(nc(N)[nH]c2=O)NC1 [Sepiapterin],0.998 ± 0.0035,1.01 ± 0.016,1.02 ± 0.015,0.999 ± 0.01,0.9937 ± 0.0055,0.9923 ± 0.0025
COc1ccccc1N1CCN(CCN2C(=O)CC3(CCCC3)CC2=O)CC1,1.02 ± 0.015,1.01 ± 0.034,1.027 ± 0.0058,1.01 ± 0.013,1.007 ± 0.0058,1.003 ± 0.0058
COc1ccccc1N1CCN(CCN2C(=O)CC3(CCCC3)CC2=O)CC1 [BMY 7378 dihydrochloride],1 ± 0.013,1.01 ± 0.012,0.99 ± 0.014,1 ± 0.025,1.003 ± 0.0058,1.01 ± 0.011
"CN(C)c1nc(N)c(C(=O)NC(=N)N)nc1Cl [5-(N,N-Dimethyl)amiloride hydrochloride]",0.995 ± 0.007,1.003 ± 0.0058,0.997 ± 0.0027,1.01,0.981 ± 0.0089,0.977 ± 0.0079
CC(C)C[C@H](NC(=O)CNC(=O)c1cc(Cl)ccc1Cl)B1OC(=O)CC(CC(=O)O)(C(=O)O)O1 (some centres not stated),0.98 ± 0.014,0.835 ± 0.018,1.047 ± 0.0058,1.04 ± 0.015,0.263 ± 0.024,0.0378 ± 0.0053
Cc1nc2c(OCc3ccccc3)cccn2c1CC#N,1.023 ± 0.0058,1.02 ± 0.01,1.013 ± 0.0058,1.02 ± 0.015,1.003 ± 0.0058,1.01
CCOC(=O)C1=C(C)NC(C)=C(C(=O)OC)C1c1cccc([N+](=O)[O-])c1 (configuration not stated) [Nitrendipine],1.013 ± 0.0058,1.03 ± 0.025,1.01,1.02 ± 0.095,0.9927 ± 0.0075,1 ± 0.014
